# Measured values reported in the supplement of paper PMC8728848.
# Some of the results follow.
# B1: MAL-II (Maackia amurensis), P93248 (protein)
# chain: ATSNSKPTQVLLATFLTFFFLLLNNVNSSDELSFTINNFVPNEADLLFQGEASVSSTGVLQLTRVENGQPQQYSVGRALYAAPVRIWDNTTGSVASFSTSFTFVVKAPNPTITSDGLAFFLAPPDSQIPSGRVSKYLGLFNNSNSDSSNQIVAVEFDTYFGHSYDPWDPNYRHIGIDVNGIESIKTVQWDWINGGVAFATITYLAPNKTLIASLVYPSNQTSFIVAASVDLKEILPEWVRVGFSAATGYPTQVETHDVLSWSFTSTLEANSDAATENNVHIARYTA
# How the values were obtained:
# Experiment in all cases: glycan array binding signal (z-score within array); higher = stronger binding
# Conditions in all cases: glycan notation: IUPAC condensed, linker removed
# [1] = target: Fuc(a1-2)Gal(b1-4)GlcNAc(b1-6)GalNAc
# Summary of the method: (§1)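 Columns mapping to the same glycan were averaged after glycan names were converted to IUPAC-condensed notation. The data come from 3228 arrays in the Consortium for Functional Glycomics database, limited to those with an available protein sequence. Binding is reported as a within-array Z-score averaged across arrays of one protein sequence and across linkers.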
# [2] = target: Fuc(a1-2)Gal(b1-4)GlcNAc6S
# Summary of the method: as §1
# [3] = target: Fuc(a1-2)Gal(b1-4)[Fuc(a1-3)]GlcNAc
# Summary of the method: as §1
# [4] = target: Fuc(a1-2)Gal(b1-4)[Fuc(a1-3)]GlcNAc(b1-2)Man(a1-3)[Fuc(a1-2)Gal(b1-4)[Fuc(a1-3)]GlcNAc(b1-2)Man(a1-6)]Man(b1-4)GlcNAc(b1-4)GlcNAc
# Summary of the method: as §1
# [5] = target: Fuc(a1-2)Gal(b1-4)[Fuc(a1-3)]GlcNAc(b1-2)Man(a1-3)[Fuc(a1-2)Gal(b1-4)[Fuc(a1-3)]GlcNAc(b1-2)Man(a1-6)]Man(b1-4)GlcNAc(b1-4)[Fuc(a1-6)]GlcNAc
# Summary of the method: as §1
# [6] = target: Fuc(a1-2)Gal(b1-4)[Fuc(a1-3)]GlcNAc(b1-2)[Fuc(a1-2)Gal(b1-4)[Fuc(a1-3)]GlcNAc(b1-4)]Man(a1-3)[Fuc(a1-2)Gal(b1-4)[Fuc(a1-3)]GlcNAc(b1-2)Man(a1-6)]Man(b1-4)GlcNAc(b1-4)GlcNAc
# Summary of the method: as §1
# [7] = target: Fuc(a1-2)Gal(b1-4)[Fuc(a1-3)]GlcNAc(b1-3)Gal(b1-4)[Fuc(a1-3)]GlcNAc
# Summary of the method: as §1
# [8] = target: Fuc(a1-2)Gal(b1-4)[Fuc(a1-3)]GlcNAc(b1-3)Gal(b1-4)[Fuc(a1-3)]GlcNAc(b1-3)Gal(b1-4)[Fuc(a1-3)]GlcNAc
# Summary of the method: as §1
# [9] = target: Fuc(a1-2)Gal(b1-4)[Fuc(a1-3)]GlcNAc(b1-3)GalNAc
# Summary of the method: as §1
# [10] = target: Fuc(a1-2)Gal(b1-4)[Fuc(a1-3)]GlcNAc(b1-3)[Neu5Ac(a2-6)Gal(b1-4)GlcNAc(b1-6)]Gal(b1-4)Glc
# Summary of the method: as §1
# [11] = target: Fuc(a1-2)Gal3S(b1-4)GlcNAc
# Summary of the method: as §1
# [12] = target: Fuc(a1-2)Gal6S(b1-3)GlcNAc
# Summary of the method: as §1
# [13] = target: Fuc(a1-2)Gal6S(b1-3)GlcNAc6S
# Summary of the method: as §1
# [14] = target: Fuc(a1-2)Gal6S(b1-4)Glc
# Summary of the method: as §1
# [15] = target: Fuc(a1-2)Gal6S(b1-4)Glc6S
# Summary of the method: as §1
# [16] = target: Fuc(a1-2)Gal6S(b1-4)GlcNAc
# Summary of the method: as §1
# [17] = target: Fuc(a1-2)GlcNAc
# Summary of the method: as §1
# [18] = target: Fuc(a1-2)[Gal(a1-3)]Gal
# Summary of the method: as §1
# [19] = target: Fuc(a1-2)[Gal(a1-3)]Gal(b1-3)GalNAc
# Summary of the method: as §1
# [20] = target: Fuc(a1-2)[Gal(a1-3)]Gal(b1-3)GalNAc(b1-3)Gal(a1-4)Gal(b1-4)Glc
# Summary of the method: as §1
# [21] = target: Fuc(a1-2)[Gal(a1-3)]Gal(b1-3)GlcNAc
# Summary of the method: as §1
# [22] = target: Fuc(a1-2)[Gal(a1-3)]Gal(b1-3)GlcNAc(b1-2)Man(a1-3)[Fuc(a1-2)[Gal(a1-3)]Gal(b1-3)GlcNAc(b1-2)Man(a1-6)]Man(b1-4)GlcNAc(b1-4)GlcNAc
# Summary of the method: as §1
# [23] = target: Fuc(a1-2)[Gal(a1-3)]Gal(b1-3)GlcNAc(b1-2)Man(a1-3)[Fuc(a1-2)[Gal(a1-3)]Gal(b1-3)GlcNAc(b1-2)Man(a1-6)]Man(b1-4)GlcNAc(b1-4)[Fuc(a1-6)]GlcNAc
# Summary of the method: as §1
# [24] = target: Fuc(a1-2)[Gal(a1-3)]Gal(b1-3)GlcNAc(b1-3)GalNAc
# Summary of the method: as §1
# [25] = target: Fuc(a1-2)[Gal(a1-3)]Gal(b1-3)GlcNAc(b1-6)GalNAc
# Summary of the method: as §1
# [26] = target: Fuc(a1-2)[Gal(a1-3)]Gal(b1-4)Glc
# Summary of the method: as §1
# [27] = target: Fuc(a1-2)[Gal(a1-3)]Gal(b1-4)GlcNAc
# Summary of the method: as §1
# [28] = target: Fuc(a1-2)[Gal(a1-3)]Gal(b1-4)GlcNAc(b1-2)Man
# Summary of the method: as §1
# [29] = target: Fuc(a1-2)[Gal(a1-3)]Gal(b1-4)GlcNAc(b1-2)Man(a1-3)[Fuc(a1-2)[Gal(a1-3)]Gal(b1-4)GlcNAc(b1-2)Man(a1-6)]Man(b1-4)GlcNAc(b1-4)GlcNAc
# Summary of the method: as §1
# [30] = target: Fuc(a1-2)[Gal(a1-3)]Gal(b1-4)GlcNAc(b1-2)Man(a1-3)[Fuc(a1-2)[Gal(a1-3)]Gal(b1-4)GlcNAc(b1-2)Man(a1-6)]Man(b1-4)GlcNAc(b1-4)[Fuc(a1-6)]GlcNAc
# Summary of the method: as §1
# [31] = target: Fuc(a1-2)[Gal(a1-3)]Gal(b1-4)GlcNAc(b1-3)GalNAc
# Summary of the method: as §1
# [32] = target: Fuc(a1-2)[Gal(a1-3)]Gal(b1-4)GlcNAc(b1-6)GalNAc
# Summary of the method: as §1
# [33] = target: Fuc(a1-2)[Gal(a1-3)]Gal(b1-4)[Fuc(a1-3)]Glc
# Summary of the method: as §1
# [34] = target: Fuc(a1-2)[Gal(a1-3)]Gal(b1-4)[Fuc(a1-3)]GlcNAc
# Summary of the method: as §1
# [35] = target: Fuc(a1-2)[Gal(a1-3)]Gal(b1-4)[Fuc(a1-3)]GlcNAc(b1-3)GalNAc
# Summary of the method: as §1
# [36] = target: Fuc(a1-2)[Gal(a1-4)]Gal(b1-4)GlcNAc
# Summary of the method: as §1
# [37] = target: Fuc(a1-2)[GalNAc(a1-3)]Gal
# Summary of the method: as §1
# [38] = target: Fuc(a1-2)[GalNAc(a1-3)]Gal(b1-3)GalNAc(a1-3)[Fuc(a1-2)]Gal(b1-4)GlcNAc
# Summary of the method: as §1
binder,measurement,setting,value
B1,glycan array binding signal (z-score),[1],-0.113
same,glycan array binding signal (z-score),[2],-0.236
same,glycan array binding signal (z-score),[3],-0.214
same,glycan array binding signal (z-score),[4],-0.214
same,glycan array binding signal (z-score),[5],-0.186
same,glycan array binding signal (z-score),[6],-0.073
same,glycan array binding signal (z-score),[7],-0.122
same,glycan array binding signal (z-score),[8],-0.019
same,glycan array binding signal (z-score),[9],1.86
same,glycan array binding signal (z-score),[10],-0.228
same,glycan array binding signal (z-score),[11],-0.241
same,glycan array binding signal (z-score),[12],-0.282
same,glycan array binding signal (z-score),[13],-0.253
same,glycan array binding signal (z-score),[14],-0.148
same,glycan array binding signal (z-score),[15],-0.217
same,glycan array binding signal (z-score),[16],-0.221
same,glycan array binding signal (z-score),[17],-0.24
same,glycan array binding signal (z-score),[18],-0.107
same,glycan array binding signal (z-score),[19],-0.178
same,glycan array binding signal (z-score),[20],-0.064
same,glycan array binding signal (z-score),[21],-0.131
same,glycan array binding signal (z-score),[22],-0.218
same,glycan array binding signal (z-score),[23],0.051
same,glycan array binding signal (z-score),[24],-0.241
same,glycan array binding signal (z-score),[25],-0.239
same,glycan array binding signal (z-score),[26],-0.22
same,glycan array binding signal (z-score),[27],-0.206
same,glycan array binding signal (z-score),[28],-0.224
same,glycan array binding signal (z-score),[29],-0.159
same,glycan array binding signal (z-score),[30],-0.091
same,glycan array binding signal (z-score),[31],-0.135
same,glycan array binding signal (z-score),[32],-0.206
same,glycan array binding signal (z-score),[33],-0.2
same,glycan array binding signal (z-score),[34],-0.173
same,glycan array binding signal (z-score),[35],0.653
same,glycan array binding signal (z-score),[36],-0.171
same,glycan array binding signal (z-score),[37],-0.238
same,glycan array binding signal (z-score),[38],-0.105
